According to ChEMBL document CHEMBL1201862, “PubChem BioAssay data set” (2004):
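Dose response: 5 concentrations. Exposure: 48 h. Format: 96-well plates. Endpoint: linear interpolation; highest concentration if not reached. GI50 = concentration required for 50% inhibition of growth.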 Calls of active or inactive are those of the source. No stated cut-off is given here; in the data, active = GI50 up to about 1.1 µM and inactive = higher.

Tested on: NCI-H322M
Test: DTP human tumour cell line panel, 48 h

| SMILES | GI50 |
| --- | --- |
| Cc1cnoc1NS(=O)(=O)c1ccc(Nc2nnc(/C=C/c3c(O)ccc4ccccc34)c(=O)n2N)cc1 | inactive: 83.9 µM |
| CC(=O)O[C@H]1C(=O)[C@@]2(C)[C@H]([C@H](OC(=O)c3ccccc3)[C@]3(O)C[C@H](OC(=O)[C@H](O)[C@@H](NC(=O)c4ccc(N(C)C)cc4)c4ccccc4)C(C)=C1C3(C)C)[C@]1(OC(C)=O)CO[C@@H]1C[C@@H]2O | active: < 0.005 µM |
| Cc1n[nH]c(=O)c2cc(-c3ccccc3)[nH]c12 | inactive: > 100 µM |
| CCCN1CC=C(c2cc(C(=O)OCC)[nH]c2-c2cc(C)no2)C1=O | inactive: > 100 µM |
| CCCN(CCCC(NC(C)=O)C(=O)NCc1ccccc1)C(=O)N(C)N=O (configuration not stated) | inactive: > 100 µM |
| CCCCC(/C=C\COC1CCCCO1)=C/C(=O)OCC (configuration not stated) | inactive: > 100 µM |
| CS(=O)(=O)C1S(=O)(=O)OCCOS1(=O)=O | inactive: > 100 µM |
| CC(C)=CCC[C@@H](C)C1=C(O)C(=O)C(C)=C(N)C1=O | inactive: 25.8 µM |
| COc1ccc(OC(=O)N2C/C(=C\c3ccccc3)C(=O)/C(=C/c3ccccc3)C2)cc1 | inactive: 25.7 µM |
| N#CC(Nc1cccc(C(F)(F)F)c1)c1ccccc1C(F)(F)F (configuration not stated) | inactive: 5.92 µM |
| O=C(O)c1cccc(S(=O)(=O)NN2C(=O)CSC2c2ccccc2)c1 (configuration not stated) | inactive: > 100 µM |
| CSc1c(C#N)c(=O)n(N)c2c1c(C)nn2-c1ccccc1 | inactive: 24.2 µM |
| COc1cc(/C=C/C(=O)c2ccc(O)c(OC)c2)ccc1O | inactive: 11.8 µM |
| Nc1nccc2c1ncn2[C@H]1C[C@H](O)[C@@H](CO)O1 | inactive: > 100 µM |
| Oc1cc(-c2cccs2)nc2cc3c(cc12)OCO3 | inactive: 4.71 µM |
| CN1C(=O)CCC1c1ccc2c(c1)oc(=O)n2C (configuration not stated) | inactive: > 100 µM |
| CCOC(=O)c1ccc(N2C(=O)Cc3ccccc3C2=O)cc1 | inactive: > 100 µM |
| Nc1ccc(OCC(O)N2C(=O)c3ccccc3C2=O)cc1 (configuration not stated) | inactive: > 100 µM |
| Cc1ccc(/N=C/c2ccc3c(c2)OCO3)cc1C | inactive: > 100 µM |
| CC1OC(OC2C(CO)OC(O[C@H]3CC[C@@]4(C)C(=CC[C@H]5[C@@H]6C[C@@H]7O[C@](O)(CC[C@H](CO)COC8OC(CO)C(O)C(O)C8O)[C@@H](C)[C@@H]7[C@@]6(C)CC[C@@H]54)C3)C(OC3OC(C)C(O)C(O)C3O)C2O)C(O)C(O)C1O (some centres not stated) | inactive: > 100 µM |
| O[C@H]1[C@H](O)[C@@H](O)[C@@]2(O)C[C@@H](O)[C@@H]1N2 | inactive: > 100 µM |
| CC(C)=CC(=O)CC(=O)C(=O)NCCNC(=O)C(=O)CC(=O)C=C(C)C | inactive: > 50 µM |

| SMILES | GI50 |
| --- | --- |
| CC1=NN(c2cccc(Cl)c2)C2(SCC(=O)N2c2nc3ccccc3s2)/C1=C\c1ccc(Cl)cc1 (configuration not stated) | inactive: 29.8 µM |
| CCC1(O)C[C@H]2CN(CCCc3c([nH]c4ccccc34)[C@@](C(=O)OC)(c3cc4c(cc3OC)N(C)C3[C@](O)(C(=O)OC)[C@H](OC(C)=O)[C@]5(CC)C=CCN6CC[C@]43[C@H]65)C2)C1 (some centres not stated) | inactive: 2.71 µM |
| CC(C)OP(=O)(OC(C)C)/C(=N/Nc1ccc([N+](=O)[O-])cc1)Nc1ccc(N/C(=N\Nc2ccc([N+](=O)[O-])cc2)P(=O)(OC(C)C)OC(C)C)cc1 | inactive: > 100 µM |
| O=c1[nH]nc(Cc2ccccc2)n1/N=C/c1ccc([N+](=O)[O-])o1 | inactive: 4.72 µM |
| CN(C)CCC1(C2=CCCC2)CC/C(=C\c2ccccc2)C1=O (configuration not stated) | inactive: 16.3 µM |
| Oc1cc(O)c2c(c1)O[C@H](c1cc(O)c(O)c(O)c1)[C@@H](O)C2 [GALLOCATECHIN] | inactive: 54.1 µM |
| N=c1c2c(ncn1N)Oc1c(c(-c3ccccc3)nn1-c1ccccc1)C2c1ccc(Cl)cc1 (configuration not stated) | inactive: 1.73 µM |
| CC(C)(C)C(=O)N1C(C(=O)O)Cc2ccccc2[C@@H]1Cc1ccccc1 (some centres not stated) | inactive: > 100 µM |
| c1ccc(-c2c(-c3cccs3)[nH]c(-c3cccs3)c2-c2ccccn2)nc1 | inactive: 34.6 µM |
| O=C(O[C@H](/C=C/c1ccccc1)P1(=O)N(Cc2ccccc2)[C@H]2CCCC[C@@H]2N1Cc1ccccc1)c1ccccc1 | inactive: 6.28 µM |
| Nc1nc2ncn(CCO)c2c(=S)[nH]1 | inactive: > 100 µM |
| CC(C)=CCC/C(C)=C/CC/C(C)=C/C(O)c1ccccc1 (configuration not stated) | inactive: 20.4 µM |
| O=C(Nc1ccc(Nc2ccc3c(c2)C(=O)c2ccccc2C3=O)c2c1C(=O)c1ccccc1C2=O)c1ccccc1 | inactive: > 100 µM |
| O=C1C(=Cc2cccs2)C(=O)N(CCc2ccccc2)S(=O)(=O)N1CCc1ccccc1 | inactive: > 50 µM |
| N#Cc1nc(-c2ccccn2)c(-c2ccccn2)nc1C#N | active: 0.519 µM |
| CCCCc1c2c(nc3c1CCC/C3=C\c1ccccc1)C(=O)CCC2 | inactive: 21.1 µM |
| CCC1c2[nH]c3ccccc3c2C[C@H]2C(=O)NC(CCCCNC(=O)OC(C)(C)C)C(=O)N12 (some centres not stated) | inactive: 46.9 µM |
| CC1=CC(=O)c2[nH]c3ccccc3c2C1=O [MURRAYAQUINONE A] | inactive: > 25 µM |
| COc1ccc2[nH]c3c(C)c4cnccc4c(C)c3c2c1 | inactive: 3.56 µM |
| C=CCSC1=N/C(=C\c2ccccc2)C(=O)N1CC=C | inactive: 69.5 µM |
| Cc1cc(S(=O)(=O)[N-]/C(=N/S(=O)(=O)c2ccc(Cl)cc2)[n+]2ccc(N(C)C)cc2)c(S)cc1Cl | inactive: 55.3 µM |
| CCOC(=O)C1=C(C)N(NC(=O)OC)C2(N)N(NC(=O)OC)C(C)=C(C(=O)OCC)C12C#N (configuration not stated) | inactive: > 100 µM |

| SMILES | GI50 |
| --- | --- |
| Cc1ccc(CC[PH](=O)CCc2ccc(C)nc2)cn1 | inactive: > 100 µM |
| Oc1ccc(SCc2cc(O)c(O)c(O)c2)cc1 | inactive: 16.1 µM |
| N#Cc1cc(-c2nc3c(F)cccc3s2)ccc1N | inactive: 4.68 µM |
| CC1=CCC[C@H]2[C@](C)(CC3=CC(=O)C4SCCSC4C3=O)[C@@H](C)CC[C@]12C (some centres not stated) | inactive: > 10 µM |
| C(=N\NC1=NCCN1)/c1ccc(-c2cn3cc(/C=N/NC4=NCCN4)ccc3n2)cc1 | inactive: 15.2 µM |
| CS(=O)(=O)c1ccc(-c2cc(-c3ccc(S(C)(=O)=O)cc3)[n+](-c3cc(-c4ccccc4)c([O-])c(-c4ccccc4)c3)c(-c3ccc(S(C)(=O)=O)cc3)c2)cc1 | inactive: > 100 µM |
| Nn1c(-c2ccccc2)nc2ccc(Br)cc2c1=O | inactive: 67 µM |
| CC(=O)N(C)c1cc(NCc2ccccc2)ccc1OCc1ccccc1 | inactive: 20.7 µM |
| O=c1[nH]c(NCc2ccncc2)nc2[nH]cnc12 | inactive: > 100 µM |
| Cc1cn(C2CC(O)C(Cn3nncc3Cn3cnc4c(N)ncnc43)O2)c(=O)[nH]c1=O (configuration not stated) | inactive: > 100 µM |
| O=C1C=C(Nc2ccccc2C(=O)CC(=O)C(=O)Nc2ccc(Cl)cc2)c2ccccc2C1=O | inactive: 14.9 µM |
| COc1ccc(/C=C2\CCC(C)C3=C2N=c2s/c(=C/c4cccc(Br)c4)c(=O)n2C3c2ccc(OC)c(OC)c2)cc1OC (configuration not stated) | inactive: > 100 µM |
| COc1cc(C2c3cc4c(cc3[C@@H](Nc3ccc5c(c3)OCO5)C3COC(=O)[C@H]23)OCO4)cc(OC)c1O (some centres not stated) | inactive: 5.24 µM |
| CC(C)(O)[C@@H]1CC[C@@]2(C)CCCC(O)C2(O)C1 (some centres not stated) | inactive: > 100 µM |
| CC1(C)CNC(c2ccc3c(c2)Cc2cc(C4=NC(C)(C)CN4)ccc2-3)=N1 | inactive: 25.2 µM |
| COc1cc2c(cc1OCCCNC(=O)c1cc3ccccc3[nH]1)N=C[C@@H]1CCCN1C2=O | inactive: 1.2 µM |
| COC1OC(OC)C2C(c3c(C)cc(C)cc3C)=NOC12 (configuration not stated) | inactive: > 100 µM |
| CCCCNC(=O)c1cc2c(cc1Cl)Sc1nccn1S2(=O)=O | inactive: 91.4 µM |
| Cc1ccc2[nH]c3[nH]c(=O)[nH]c(=O)c3c2c1 | inactive: > 100 µM |
| COc1cc([C@@H]2c3cc4c(cc3[C@@H](NCc3ccc(C#N)cc3)C3COC(=O)[C@@H]32)OCO4)cc(OC)c1O (some centres not stated) | inactive: 3.85 µM |
| O=C(O)c1ccc(C2COc3ccc(Cl)cc3C2)cc1 (configuration not stated) | inactive: > 100 µM |
| Cc1cc2c(cc1C)C(=O)/C(=C/c1ccccc1C(=O)O)C2 | inactive: 55.6 µM |

| SMILES | GI50 |
| --- | --- |
| NC(CCCCN/C=C1/N=C(c2ccccc2)OC1=O)C(=O)O (configuration not stated) | inactive: > 100 µM |
| COc1cc(C2=C(C)[C@@H]3CN(CC=C3c3ccc(Cl)cc3)C2)c(S(=O)(=O)O)cc1OC | inactive: > 100 µM |
| O=c1[nH]nc(Cc2ccccc2)n1Nc1ccccc1 | inactive: > 100 µM |
| C1CCC(CC2CCC(NC3=NCCO3)CC2)CC1 (configuration not stated) | inactive: 27.8 µM |
| O=C1CCCc2cc3c(cc21)CC1(Cc2ccccc2C1)C3 | inactive: 3.88 µM |
| CC12OC(=O)C(C#N)C1(C)C1C(=O)CCCC12 (configuration not stated) | inactive: > 100 µM |
| Cc1c(C#N)c2ccccc2c2nc3ccccc3n12 | inactive: > 100 µM |
| COC(=O)C1=C(C(=O)OC)C2(C)Nc3ccccc3C2=C(c2ccccc2)C1 (configuration not stated) | inactive: 19.7 µM |
| O=C(O)C1=C/C(=C(/c2ccccc2)c2cc(C(=O)O)c(O)c3ccccc23)c2ccccc2C1=O | inactive: > 100 µM |
| CC(=O)NC(CCCCN(Cc1ccccc1)C(=O)N(CCCl)N=O)C(=O)NCc1ccccc1 (configuration not stated) | inactive: 57.9 µM |
| O=C(c1ccccc1F)c1c(NCc2ccccc2)c(=O)c1=O | inactive: > 100 µM |
| CCSC1=C(C#N)C2(CCCCC2)C2=C(O)CC(C)(C)CC2=N1 | inactive: 23.2 µM |
| N#Cc1nsnc1-c1nc(-c2nsnc2C#N)nc(-c2nsnc2C#N)n1 | inactive: > 100 µM |
| O=C(NCCC1CNc2ccccc21)OCc1ccccc1 (configuration not stated) | inactive: > 100 µM |
| COC(=O)c1c2c(cc3c1CC1(Cc4cc5c(cc4C1=O)CCC5)C3)CCC2 (configuration not stated) | inactive: 48.4 µM |
| CN1CCCC(C(=O)OCC(=O)C2(O)CCC3C4CCC5=CC(=O)CCC5(C)C4C(O)CC32C)C1 (configuration not stated) | inactive: 19.5 µM |
| CC(NC1=CC(=O)c2cccnc2C1=O)C(O)c1ccccc1 (configuration not stated) | inactive: 1.99 µM |
| O=C(O)CC1NCc2cc3ccccc3nc21 (configuration not stated) | inactive: > 100 µM |
| Cc1nn2c(nc1=O)sc1ccc3ccccc3c12 | inactive: > 100 µM |
| CC1(C)C2C=CC1C(=O)CC2 (configuration not stated) | inactive: > 100 µM |
| COC1=N[C@H](C(C)C)C(OC)=N[C@H]1Cc1ccc(C[C@@H]2N=C(OC)[C@@H](C(C)C)N=C2OC)s1 | inactive: 44.8 µM |
